Assay results: the RNAGym collection of RNA variant scans (doi:10.1073/pnas.2313332121)
Variants at the floor of the assay are shown more often than the library holds them.

B1: TPR 5TU (parent)
chain: GGAUCUUCUCGAUCUAACAAAAAAGACAAAUCUGCCACAAAGCUUGAGAGCAUCUUCGGAUGCAGAGGCGGCAGCCUUCGGUGGCGCGAUAGCGCCAACGUUCUCAACUAUGACACGCAAAACGCGUGCUCCGUUGAAUGGAGUUUAUCAUG

Variants of: B1
Test: polymerase ribozyme fitness, log enrichment relative to wild type (log ratio); higher = more active; in vitro selection for triplet polymerase activity
Summary of the method: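 Each subunit of a heterodimeric triplet polymerase ribozyme was represented by a PCR-built, transcribed mutant library that underwent triplicate single-round in vitro selection with frozen incubation at −7 °C. Extended constructs were recovered by gel excision, streptavidin-bead capture and RT-PCR, and Illumina sequencing of input and output libraries kept genotypes with ≥10 input reads and ≥1 read per output. Fitness is the logarithm of genotype enrichment relative to wild-type enrichment, from inverse-variance-weighted replicate averages, with a logarithm base of 2.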

U45A A52C U55A A64C G88U and U44A U77A C95U cannot be ordered by “polymerase ribozyme fitness (log ratio)” value: at most -4.2 for the first, at most -4.2 for the second.

U44A A52G C85U C96U and C43U U56G cannot be ordered by “polymerase ribozyme fitness (log ratio)” value: at most -4.2 for the first, at most -4.2 for the second.

U44C G86U A142U and U44A C75U C76G U77G G92U A115U G140A G152C cannot be ordered by “polymerase ribozyme fitness (log ratio)” value: at most -4.2 for the first, at most -4.2 for the second.

U44A G58C G92C G141U C149A and U44A G67U cannot be ordered by “polymerase ribozyme fitness (log ratio)” value: at most -4.2 for the first, at most -4.2 for the second.

Compared with C43U G83A, U45A G65A U82A A106U is higher in “polymerase ribozyme fitness (log ratio)” value: at most -4.2 for the first, -0.414 for the second.

U45A G50A U55G C87G G94C and C43U A49C G62C G67A C85G U101G C118A G141C cannot be ordered by “polymerase ribozyme fitness (log ratio)” value: at most -4.2 for the first, at most -4.2 for the second.

U45A G62C A107U and U45A A60U C95U C114G cannot be ordered by “polymerase ribozyme fitness (log ratio)” value: at most -4.2 for the first, at most -4.2 for the second.

U44A A91C and U45A G46C G50C G67C C95G U101A cannot be ordered by “polymerase ribozyme fitness (log ratio)” value: at most -4.2 for the first, at most -4.2 for the second.

First: U45A A49C G71C G83C C87U C96U A115U G126A G140C
Second: U45A C85U C118G A138U
The “polymerase ribozyme fitness (log ratio)” value of the first is lower: at most -4.2 for the first, -4.16 for the second.

U44A A47C U55A C76U C87A A91G A107U G126A U145A and U44G G67U A91U A115U A120C cannot be ordered by “polymerase ribozyme fitness (log ratio)” value: at most -4.2 for the first, at most -4.2 for the second.

U45A G58A C69G C76U C99A A147G and U44G A60U A115C cannot be ordered by “polymerase ribozyme fitness (log ratio)” value: at most -4.2 for the first, at most -4.2 for the second.

U44A U104A A115G and C43U A64U C69A C103G G133C cannot be ordered by “polymerase ribozyme fitness (log ratio)” value: at most -4.2 for the first, at most -4.2 for the second.

U44A U55A C132U and U44G A47G G62A G68C C69U cannot be ordered by “polymerase ribozyme fitness (log ratio)” value: at most -4.2 for the first, at most -4.2 for the second.

C43U U56G A110C C116G and U44G C108U A120U cannot be ordered by “polymerase ribozyme fitness (log ratio)” value: at most -4.2 for the first, at most -4.2 for the second.

U44A A64C C85U and U44A C87A U90C C93G C105G A122G cannot be ordered by “polymerase ribozyme fitness (log ratio)” value: at most -4.2 for the first, at most -4.2 for the second.

C43U G50A A98G C114U and C43U A121G U135G cannot be ordered by “polymerase ribozyme fitness (log ratio)” value: at most -4.2 for the first, at most -4.2 for the second.

U44C U55A G59A G83A C87U G124C and C43U C57G C75G C95U cannot be ordered by “polymerase ribozyme fitness (log ratio)” value: at most -4.2 for the first, at most -4.2 for the second.

U44A U61G A66U C87G U90A C95U and C43U C93U C149A cannot be ordered by “polymerase ribozyme fitness (log ratio)” value: at most -4.2 for the first, at most -4.2 for the second.

U44G G59A A60C G83A C95G C103G and U45A C57A G133C U139A A150C cannot be ordered by “polymerase ribozyme fitness (log ratio)” value: at most -4.2 for the first, at most -4.2 for the second.

U44G U56A C72U C85G G88U A106G and U45A A52G G80A G81C A113C C131G cannot be ordered by “polymerase ribozyme fitness (log ratio)” value: at most -4.2 for the first, at most -4.2 for the second.

Going from U44G A52C C96U U127C to U45A C114U, the “polymerase ribozyme fitness (log ratio)” value rises from at most -4.2 to -4.01.

C43U U61A G80A G94U A106C A122U and C43G G86C A137G cannot be ordered by “polymerase ribozyme fitness (log ratio)” value: at most -4.2 for the first, at most -4.2 for the second.

C43U A52C U53A G92A and U45A G48C A106G cannot be ordered by “polymerase ribozyme fitness (log ratio)” value: at most -4.2 for the first, at most -4.2 for the second.

U44G C75G G88C and U45A A91C cannot be ordered by “polymerase ribozyme fitness (log ratio)” value: at most -4.2 for the first, at most -4.2 for the second.

C43U A52G G84A G92U U148A A150U and C43U G65A G81U A91C G94A C118U U146A cannot be ordered by “polymerase ribozyme fitness (log ratio)” value: at most -4.2 for the first, at most -4.2 for the second.

U45A C93G G100A and C43U G50A A73G C76A C95A A142C cannot be ordered by “polymerase ribozyme fitness (log ratio)” value: at most -4.2 for the first, at most -4.2 for the second.

U45A G48A G50C G59C C79G and U44C U77A G84A G136U U144C G152U cannot be ordered by “polymerase ribozyme fitness (log ratio)” value: at most -4.2 for the first, at most -4.2 for the second.

C43G G88A C95U C105A and U44A C54G C57U G86C cannot be ordered by “polymerase ribozyme fitness (log ratio)” value: at most -4.2 for the first, at most -4.2 for the second.

U44A G81A C95G C96U A110U A138C and U44C C54A C114U cannot be ordered by “polymerase ribozyme fitness (log ratio)” value: at most -4.2 for the first, at most -4.2 for the second.

U44A C54U C75U G92C G94A U148G and U44G A47G C85U C108U A121U cannot be ordered by “polymerase ribozyme fitness (log ratio)” value: at most -4.2 for the first, at most -4.2 for the second.

First: U44G G136A
Second: U44A U53C C85U C108G A113U U145C
The “polymerase ribozyme fitness (log ratio)” value of the first is higher: -3.71 for the first, at most -4.2 for the second.

Going from C43U G50C U61A C63A A73G C85G U90C A137G G143A U144G to U45A C51U C54U G92U, the “polymerase ribozyme fitness (log ratio)” value rises from at most -4.2 to -3.95.

First: U45A C85U
Second: U45A C85G
The “polymerase ribozyme fitness (log ratio)” value of the first is higher: -3.1 for the first, -3.95 for the second.

U45A G46C C76A C96U C105U and U44C G94A cannot be ordered by “polymerase ribozyme fitness (log ratio)” value: at most -4.2 for the first, at most -4.2 for the second.

U44A C51U C76U A106U A110G and U44A C76A A91G cannot be ordered by “polymerase ribozyme fitness (log ratio)” value: at most -4.2 for the first, at most -4.2 for the second.

U44A G48A G88C U101G and U44A G67A C87A G143A cannot be ordered by “polymerase ribozyme fitness (log ratio)” value: at most -4.2 for the first, at most -4.2 for the second.

U44A G68U G92U A98G C99G and U44G G65A U77C C87U C105G C118U C129U G143U U148G cannot be ordered by “polymerase ribozyme fitness (log ratio)” value: at most -4.2 for the first, at most -4.2 for the second.

U44A C87U G94U C96U and C43G G124U cannot be ordered by “polymerase ribozyme fitness (log ratio)” value: at most -4.2 for the first, at most -4.2 for the second.

U44A C54U C57G C72G G84C C95G C96U and U44G G81C C129A G136A cannot be ordered by “polymerase ribozyme fitness (log ratio)” value: at most -4.2 for the first, at most -4.2 for the second.

C43U C87G G141C and C43U G50A U56A C69A C95U A137C C149G cannot be ordered by “polymerase ribozyme fitness (log ratio)” value: at most -4.2 for the first, at most -4.2 for the second.

U44G U55G U78C C85U U101G and C43U U45A C63U G81A C95G U111A cannot be ordered by “polymerase ribozyme fitness (log ratio)” value: at most -4.2 for the first, at most -4.2 for the second.

C43U C51A C85U A107U U135C and C43U U61G A73G G80C G81A C95G U104C A106U A107G cannot be ordered by “polymerase ribozyme fitness (log ratio)” value: at most -4.2 for the first, at most -4.2 for the second.
